Whole data set: some 33,000 sequences, median “E-score (-0.5 to 0.5)” near -0.053, cut for the highest 2% near 0.37. The list shows a part of the results.
Biological target: Hap1 (UniProt P0CE41)
Test: PBM E-score (8-mer binding enrichment) (E-score (-0.5 to 0.5)); higher = stronger / more preferred TF binding; most listed sequences are background and not binding sites
Settings: protein concentration: 200 nM; construct: GST-DNA-binding domain
Procedure: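 Universal 'all 10-mer' protein binding microarrays (Agilent AMADID 015681) probed with GST-tagged S. cerevisiae TFs (full-length or DBD) made by in vitro transcription/translation (PURExpress), about 100-200 nM. Bound TF was detected with fluorescent anti-GST. Each ungapped 8-mer (which stands for itself and its reverse complement) is scored by the PBM enrichment score (E-score), a modified Wilcoxon-Mann-Whitney statistic from -0.5 to +0.5, computed with the Universal PBM Analysis Suite. Scale: above 0.35 generally sequence-specific binding.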

Sequence of UniProt P0CE41 (P0CE41 whole entry): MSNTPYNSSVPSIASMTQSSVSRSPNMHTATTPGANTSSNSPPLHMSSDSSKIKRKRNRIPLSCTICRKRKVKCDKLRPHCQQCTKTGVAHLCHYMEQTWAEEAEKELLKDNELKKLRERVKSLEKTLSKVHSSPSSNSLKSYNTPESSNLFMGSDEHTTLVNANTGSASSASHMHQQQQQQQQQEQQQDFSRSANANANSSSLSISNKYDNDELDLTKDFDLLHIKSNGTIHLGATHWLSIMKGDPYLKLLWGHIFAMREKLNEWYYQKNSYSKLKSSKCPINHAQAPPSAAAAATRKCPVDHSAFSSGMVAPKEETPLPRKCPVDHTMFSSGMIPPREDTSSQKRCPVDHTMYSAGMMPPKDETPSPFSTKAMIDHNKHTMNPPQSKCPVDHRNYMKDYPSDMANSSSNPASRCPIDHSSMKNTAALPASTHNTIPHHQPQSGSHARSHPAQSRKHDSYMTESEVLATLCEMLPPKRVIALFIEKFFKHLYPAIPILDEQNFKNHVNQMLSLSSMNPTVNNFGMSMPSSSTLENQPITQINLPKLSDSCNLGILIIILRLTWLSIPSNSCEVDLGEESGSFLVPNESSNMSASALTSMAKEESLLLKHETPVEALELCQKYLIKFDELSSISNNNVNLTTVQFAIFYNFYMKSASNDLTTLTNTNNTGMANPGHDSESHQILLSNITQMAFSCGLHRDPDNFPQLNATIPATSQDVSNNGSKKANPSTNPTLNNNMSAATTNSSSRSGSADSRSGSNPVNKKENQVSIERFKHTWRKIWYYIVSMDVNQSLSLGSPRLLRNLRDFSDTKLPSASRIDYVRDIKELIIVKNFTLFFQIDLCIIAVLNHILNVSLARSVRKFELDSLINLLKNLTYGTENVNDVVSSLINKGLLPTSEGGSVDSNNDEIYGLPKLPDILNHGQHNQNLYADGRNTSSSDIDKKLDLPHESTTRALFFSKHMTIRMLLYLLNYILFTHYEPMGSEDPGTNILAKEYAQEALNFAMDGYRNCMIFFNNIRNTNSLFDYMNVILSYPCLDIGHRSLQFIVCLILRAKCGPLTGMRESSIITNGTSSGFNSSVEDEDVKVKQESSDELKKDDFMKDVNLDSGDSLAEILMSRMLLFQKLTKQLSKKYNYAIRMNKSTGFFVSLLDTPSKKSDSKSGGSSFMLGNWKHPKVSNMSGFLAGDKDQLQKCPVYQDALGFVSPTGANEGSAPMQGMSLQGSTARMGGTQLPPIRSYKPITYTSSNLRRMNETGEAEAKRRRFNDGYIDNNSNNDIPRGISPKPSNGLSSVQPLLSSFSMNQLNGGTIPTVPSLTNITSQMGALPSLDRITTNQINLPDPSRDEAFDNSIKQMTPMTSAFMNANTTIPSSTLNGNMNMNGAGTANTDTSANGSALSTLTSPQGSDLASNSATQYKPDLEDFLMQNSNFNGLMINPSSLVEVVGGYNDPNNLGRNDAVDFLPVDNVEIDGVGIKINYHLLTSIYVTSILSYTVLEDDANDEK

| Sequence | PBM E-score |
| --- | --- |
| AGCGCACA | -0.12 |
| CACGCGTG | 0.145 |
| TACCCAGA | -0.252 |
| CCGATCAG | 0.203 |
| CGTAGTTA | 0.144 |
| ATCGGGAA | 0.339 |
| CCCCGTTC | 0.127 |
| AACCGTAC | -0.0371 |
| CACCGAAC | 0.194 |
| ACGTTAAT | 0.0964 |
| GATAAGCC | 0.251 |
| CCGCTCCA | 0.0885 |
| ACCCACCG | 0.204 |
| TGGCGTAA | -0.27 |
| CCTCAAGG | -0.168 |
| CAAGGCAG | -0.125 |
| AGGCGTGA | -0.294 |
| ATGCAGGC | -0.0748 |
| CGATCCAC | 0.0407 |
| AAAGAGGC | -0.139 |
| AAGGGAAT | -0.161 |
| ACTGACAC | -0.108 |
| ATTCCACC | 0.253 |
| GAGCCGAA | 0.252 |
| ATCGAAGA | 0.115 |

| Sequence | PBM E-score |
| --- | --- |
| GCCCCCAC | -0.0961 |
| CTCCTCTC | -0.266 |
| TACAGCCA | -0.158 |
| TTCCACAA | 0.0168 |
| CGTAATAA | 0.0082 |
| ACGAGGAC | 0.109 |
| CGCACTAA | 0.0582 |
| CGTATCGC | 0.208 |
| GCCTTACA | -0.164 |
| CGGATCAC | 0.313 |
| AGACAGCC | -0.0647 |
| CCCTTTAA | -0.0773 |
| TATACGGA | 0.293 |
| AAGTTCTC | 0.0378 |
| AGTAAGCG | 0.0229 |
| TATGCTAA | -0.132 |
| CCACCGTC | -0.0163 |
| CACGCCTG | -0.151 |
| AAGTACCG | 0.272 |
| CTGAACGA | -0.278 |
| ATGCCGTA | -0.0192 |
| CGCATTGC | -0.0689 |
| AACCGATC | 0.156 |
| GTCACATA | -0.209 |
| CATCTCAC | -0.194 |

| Sequence | PBM E-score |
| --- | --- |
| CTCTCTCA | -0.0913 |
| CACACACC | 0.0188 |
| CTCCGGCC | 0.358 |
| AAGGATTG | -0.0802 |
| ACATCGTG | -0.138 |
| AGCACCAA | -0.114 |
| CCATCCGC | 0.163 |
| AAGTTTGT | -0.12 |
| ACATTTAG | -0.3 |
| TCGATCGA | -0.0911 |
| AATCCTGG | -0.0356 |
| GCTCGCGA | 0.0705 |
| GATAGGTA | -0.0419 |
| CGCCGTGC | 0.113 |
| CATGCCAG | -0.262 |
| GTTCTCTA | -0.157 |
| CGCTTAGA | -0.00319 |
| GAAGGTGC | -0.0411 |
| AAACCCTT | -0.0315 |
| GATATCTA | -0.0499 |
| CATCGCCA | 0.116 |
| ACGATGTC | -0.0765 |
| AGCGTTAT | -0.0637 |
| CCAAGATA | -0.0939 |
| AACTGGCC | -0.0206 |

| Sequence | PBM E-score |
| --- | --- |
| AGCTACAC | -0.234 |
| CGGCTGAC | 0.192 |
| CTTCTCGC | 0.1 |
| CGGAGCCG | 0.342 |
| CGGTTGCA | 0.00987 |
| ACGAATCG | 0.0848 |
| GATACAGA | -0.131 |
| AGCGAACG | -0.0429 |
| ATTTCGCC | 0.171 |
| CGTTTCTA | -0.19 |
| ATCATGAG | -0.175 |
| GATACCTA | 0.0375 |
| CCCACGAA | -0.159 |
| CTTAGGAC | -0.283 |
| TACTAGCA | -0.0779 |
| AGTGTTTG | -0.191 |
| TCCAGTAA | -0.149 |
| CAGAAGGG | -0.224 |
| ATCCGCCC | 0.243 |
| GACACACA | -0.103 |
| ACGCCACG | -0.0591 |
| CCGCCAGA | 0.0383 |
| ACGGTCAC | -0.0165 |
| AACACCTA | -0.29 |
| CACGCAAC | 0.0291 |

| Sequence | PBM E-score |
| --- | --- |
| CCCATGCC | 0.0775 |
| CAGCAGCC | -0.15 |
| CGTACCAC | -0.0759 |
| GCTACCCC | -0.0578 |
| AGTGACCA | -0.103 |
| GGCGCGAA | 0.217 |
| GTGAACAC | -0.0677 |
| ATATATTA | 0.0579 |
| TCTTAGCA | -0.206 |
| AGTAAGTG | -0.157 |
| CGCGCGAC | 0.2 |
| AAAGGGGA | -0.0685 |
| TCCGAACA | 0.381 |
| ACACTGTG | -0.271 |
| ACACGCAC | -0.0339 |
| ACACCTAT | -0.134 |
| TGTTAGAA | -0.229 |
| GTAACTTA | -0.0938 |
| GGTTTCAC | 0.107 |
| GGCTGGGA | 0.0713 |
| CATCCCGA | 0.176 |
| GCCTCTCA | -0.127 |
| GTATAAAA | 0.0885 |
| TCGTTAGA | -0.126 |
| CTGTTGGC | -0.164 |

| Sequence | PBM E-score |
| --- | --- |
| ATGCGGAG | 0.222 |
| AGTTCTAT | -0.0593 |
| ACAACATG | -0.194 |
| ACGAGTGA | -0.317 |
| CGATACTC | 0.24 |
| CCGTGAGG | -0.0134 |
| CCCAGGCA | -0.299 |
| AGACGTAC | -0.119 |
| AACCTCTC | -0.187 |
| AACGGCCG | 0.405 |
| CGGTGTAG | 0.28 |
| ATAGTACA | -0.0418 |
| AGGGAAGG | -0.211 |
| TAAATCTA | -0.0387 |
| AGCTGCGC | -0.044 |
| CCATTCTC | -0.0493 |
| ACTTGCGC | -0.0186 |
| AAGCATCA | -0.175 |
| ACCACTTC | -0.0947 |
| AACGCAAT | 0.0802 |
| TCTCAAGA | -0.0524 |
| CGTATGGC | -0.165 |
| GTCTTGGA | -0.204 |
| CCGCGCCC | 0.154 |
| AAGAGTAC | -0.117 |

| Sequence | PBM E-score |
| --- | --- |
| GGCCCGGA | 0.409 |
| AATAGAGC | -0.0666 |
| CGAGGTCA | -0.0121 |
| GCTCCCGA | -0.00497 |
| CAAAATCA | -0.157 |
| CCCGACAG | 0.201 |
| ATTACGAA | -0.0845 |
| ACCCCAGC | -0.0676 |
| ACGCAAAC | -0.187 |
| CGGCATAG | 0.0931 |
| TATTTTAA | -0.0821 |
| CCCATCAG | -0.211 |
| AGGCCGGC | 0.271 |
| CCCGTTAG | 0.263 |
| ATATGAAT | 0.0324 |
| ATGAACTA | -0.0792 |
| GATGGTGC | -0.29 |
| AGGTGCTA | -0.132 |
| ATACGTGA | -0.0894 |
| CCCAGCCA | -0.101 |
| CCTCGGTA | 0.23 |
| ATGTCTAG | -0.108 |

Reference: the supplement of paper PMC3334620
